Earlier results in paper PMC10741027, “Risk Assessment of Psychotropic Drugs on Mitochondrial Function Using In Vitro Assays” (Biomedicines, 2023).
Where two headings read alike, the source gives them in different places.

Key:
CI-linked respiration [1] = conditions: read-out: CI-linked respiration IC50; pig brain mitochondria; cited from earlier work
respiratory CI = tested on: respiratory CI; design: method as in PMID 9309697; conditions: human brain cortex; read-out: CI inhibition IC50; cited from earlier work
CII-linked respiration = conditions: read-out: CII-linked respiration IC50; pig brain mitochondria; cited from earlier work
CI-linked respiration [2] = conditions: read-out: CI-linked respiration IC50; isolated rat brain mitochondria; cited from earlier work
ATP synthase = conditions: read-out: concentration giving 50% of the effect on ATP synthase; non-competitive, binding to membrane F0 component; cited from earlier work
F1F0-ATPase = conditions: read-out: F1F0-ATPase activity IC50; submitochondrial particles; cited from earlier work

Row | Compound | IC50 (CI-linked respiration [1]) [µM] | IC50 (respiratory CI) [µM] | IC50 (CII-linked respiration) [µM] | IC50 (CI-linked respiration [2]) [µM] | IC50 (ATP synthase) [µM] | IC50 (F1F0-ATPase) [µM]
1 | O=C(CCCN1CCC(O)(c2ccc(Cl)cc2)CC1)c1ccc(F)cc1 [Haloperidol] | 64.9 | 100 | – | – | – | –
2 | OCCOCCN1CCN(C2=Nc3ccccc3Sc3ccccc32)CC1 [Quetiapine] | 424 | – | 49 | – | – | –
3 | O=C1CCc2ccc(OCCCCN3CCN(c4cccc(Cl)c4Cl)CC3)cc2N1 [Aripiprazole] | 13 | – | 32 | – | – | –
4 | CNCCC(Oc1ccc(C(F)(F)F)cc1)c1ccccc1 (stereo not shown) [Fluoxetine] | 86.2 | – | – | 150 | 60 | 80
